The labels stand for the following.
B1: UUUAUCC (DNA:RNA)
RNA: GGGAGACCGGAAUUCAGAUUGUCCUUUAUCCUUAAAUCCCGUCGUAGCCACCA
DNA 1: CAATCTGAATTCCGGTCTCCC
DNA 2: TGGTGGCTACGACGGGATT
B2: GCGGUAC (DNA:RNA)
RNA: B1 RNA with U25G, U26C, U27G, A28G, C30A
DNA 1: CAATCTGAATTCCGGTCTCCC
DNA 2: TGGTGGCTACGACGGGATT
B3: GCUUUUC (DNA:RNA)
RNA: B1 RNA with U25G, U26C, A28U, C30U
DNA 1: CAATCTGAATTCCGGTCTCCC
DNA 2: TGGTGGCTACGACGGGATT
B4: AUGGGGG (DNA:RNA)
RNA: B1 RNA with U25A, U27G, A28G, U29G, C30G, C31G
DNA 1: CAATCTGAATTCCGGTCTCCC
DNA 2: TGGTGGCTACGACGGGATT
B5: UGGGCCA (DNA:RNA)
RNA: B1 RNA with U26G, U27G, A28G, U29C, C31A
DNA 1: CAATCTGAATTCCGGTCTCCC
DNA 2: TGGTGGCTACGACGGGATT
B6: AAACGUA (DNA:RNA)
RNA: GGGAGACCGGAAUUCAGAUUGUCCAAACGUAUUAAAUCCCGUCGUAGCCACCA
DNA 1: CAATCTGAATTCCGGTCTCCC
DNA 2: TGGTGGCTACGACGGGATT
B7: GAGUGUA (DNA:RNA)
RNA: B6 RNA with A25G, A27G, C28U
DNA 1: CAATCTGAATTCCGGTCTCCC
DNA 2: TGGTGGCTACGACGGGATT
B8: AUUGUCA (DNA:RNA)
RNA: B1 RNA with U25A, A28G, C31A
DNA 1: CAATCTGAATTCCGGTCTCCC
DNA 2: TGGTGGCTACGACGGGATT
B9: AGCCAUA (DNA:RNA)
RNA: B6 RNA with A26G, A27C, G29A
DNA 1: CAATCTGAATTCCGGTCTCCC
DNA 2: TGGTGGCTACGACGGGATT
B10: AUCAUAA (DNA:RNA)
RNA: B1 RNA with U25A, U27C, C30A, C31A
DNA 1: CAATCTGAATTCCGGTCTCCC
DNA 2: TGGTGGCTACGACGGGATT
B11: UAUUAAG (DNA:RNA)
RNA: B1 RNA with U26A, A28U, U29A, C30A, C31G
DNA 1: CAATCTGAATTCCGGTCTCCC
DNA 2: TGGTGGCTACGACGGGATT
B12: UGCCGAA (DNA:RNA)
RNA: B6 RNA with A25U, A26G, A27C, U30A
DNA 1: CAATCTGAATTCCGGTCTCCC
DNA 2: TGGTGGCTACGACGGGATT
B13: GGGUGAC (DNA:RNA)
RNA: B6 RNA with A25G, A26G, A27G, C28U, U30A, A31C
DNA 1: CAATCTGAATTCCGGTCTCCC
DNA 2: TGGTGGCTACGACGGGATT
B14: AAAGACG (DNA:RNA)
RNA: B6 RNA with C28G, G29A, U30C, A31G
DNA 1: CAATCTGAATTCCGGTCTCCC
DNA 2: TGGTGGCTACGACGGGATT
B15: CCUACGU (DNA:RNA)
RNA: B1 RNA with U25C, U26C, U29C, C30G, C31U
DNA 1: CAATCTGAATTCCGGTCTCCC
DNA 2: TGGTGGCTACGACGGGATT
B16: CGAUUCU (DNA:RNA)
RNA: B1 RNA with U25C, U26G, U27A, A28U, C31U
DNA 1: CAATCTGAATTCCGGTCTCCC
DNA 2: TGGTGGCTACGACGGGATT
B17: AGGCCUU (DNA:RNA)
RNA: B6 RNA with A26G, A27G, G29C, A31U
DNA 1: CAATCTGAATTCCGGTCTCCC
DNA 2: TGGTGGCTACGACGGGATT
B18: GGUGUUU (DNA:RNA)
RNA: B1 RNA with U25G, U26G, A28G, C30U, C31U
DNA 1: CAATCTGAATTCCGGTCTCCC
DNA 2: TGGTGGCTACGACGGGATT
B19: AUCUCUC (DNA:RNA)
RNA: B6 RNA with A26U, A27C, C28U, G29C, A31C
DNA 1: CAATCTGAATTCCGGTCTCCC
DNA 2: TGGTGGCTACGACGGGATT
B20: GCUGACC (DNA:RNA)
RNA: B1 RNA with U25G, U26C, A28G, U29A
DNA 1: CAATCTGAATTCCGGTCTCCC
DNA 2: TGGTGGCTACGACGGGATT
B21: CUUGUUC (DNA:RNA)
RNA: B1 RNA with U25C, A28G, C30U
DNA 1: CAATCTGAATTCCGGTCTCCC
DNA 2: TGGTGGCTACGACGGGATT
B22: CCGCAGG (DNA:RNA)
RNA: B6 RNA with A25C, A26C, A27G, G29A, U30G, A31G
DNA 1: CAATCTGAATTCCGGTCTCCC
DNA 2: TGGTGGCTACGACGGGATT
B23: AUGCGGC (DNA:RNA)
RNA: B6 RNA with A26U, A27G, U30G, A31C
DNA 1: CAATCTGAATTCCGGTCTCCC
DNA 2: TGGTGGCTACGACGGGATT
B24: GCGCAGA (DNA:RNA)
RNA: B6 RNA with A25G, A26C, A27G, G29A, U30G
DNA 1: CAATCTGAATTCCGGTCTCCC
DNA 2: TGGTGGCTACGACGGGATT
B25: UAAUAGC (DNA:RNA)
RNA: B6 RNA with A25U, C28U, G29A, U30G, A31C
DNA 1: CAATCTGAATTCCGGTCTCCC
DNA 2: TGGTGGCTACGACGGGATT
B26: ACAAAUC (DNA:RNA)
RNA: B6 RNA with A26C, C28A, G29A, A31C
DNA 1: CAATCTGAATTCCGGTCTCCC
DNA 2: TGGTGGCTACGACGGGATT
B27: AGGCAUU (DNA:RNA)
RNA: B6 RNA with A26G, A27G, G29A, A31U
DNA 1: CAATCTGAATTCCGGTCTCCC
DNA 2: TGGTGGCTACGACGGGATT
B28: AUUCCCG (DNA:RNA)
RNA: B1 RNA with U25A, A28C, U29C, C31G
DNA 1: CAATCTGAATTCCGGTCTCCC
DNA 2: TGGTGGCTACGACGGGATT
B29: UCUUCCG (DNA:RNA)
RNA: B1 RNA with U26C, A28U, U29C, C31G
DNA 1: CAATCTGAATTCCGGTCTCCC
DNA 2: TGGTGGCTACGACGGGATT
B30: CCGUCUC (DNA:RNA)
RNA: B6 RNA with A25C, A26C, A27G, C28U, G29C, A31C
DNA 1: CAATCTGAATTCCGGTCTCCC
DNA 2: TGGTGGCTACGACGGGATT
B31: UUCGGAG (DNA:RNA)
RNA: B1 RNA with U27C, A28G, U29G, C30A, C31G
DNA 1: CAATCTGAATTCCGGTCTCCC
DNA 2: TGGTGGCTACGACGGGATT

Substitutions are numbered along the chain they refer to; changes in the protein carry UniProt numbers. This is one part of the list.

This assay addresses T1, RBFOX1 RRM RbFoxmut (Fox-RRM*) (Homo sapiens, UniProt Q9NWB1 109-208, R118D;E147R;N151S;E152T).
T1 sequence: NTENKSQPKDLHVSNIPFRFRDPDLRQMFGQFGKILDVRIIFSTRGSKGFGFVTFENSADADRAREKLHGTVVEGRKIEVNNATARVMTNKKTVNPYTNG
The experiment in a line: EMSA; HiTS-Eq, 1 nM pool, 10 min; buffer printed only for the single-RNA assays: 10 mM Tris pH 7.5, 150 mM NaCl, 3.4 mM EDTA, 0.001% NP-40, 30 C. The conditions noted are these: tags: His6 N-terminal (pET28a); label: 5' 32P. The procedure, abridged: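 Purified wild-type or mutant RbFox RRM at increasing concentrations was equilibrated with 1 nM of 5′-radiolabelled RNA carrying 7 randomized nucleotides for 10 min in 50 µL. Unbound RNA was separated by 8% native PAGE and sequenced. Relative association constants came from read-count changes of each RNA species compared with the control reaction, normalised to the cognate motif.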
For orientation: A gel shift assay detects complexes by their altered migration in electrophoresis.
Turning to B1, the binding signal is 0.0604 KA relative to UGCAUGU.
Under B2 stands 0.104 KA relative to UGCAUGU; under B3, 0.0442 KA relative to UGCAUGU.
Regarding B4, the binding signal is 0.108 KA relative to UGCAUGU.
The figure for B5 is 0.115 KA relative to UGCAUGU.
Take B6: the binding signal was 0.111 KA relative to UGCAUGU.
Under B7 stands 0.258 KA relative to UGCAUGU; under B8, 0.134 KA relative to UGCAUGU; under B9, 0.0885 KA relative to UGCAUGU.
Take B10: the binding signal was 0.124 KA relative to UGCAUGU.
For the molecule B11, the binding signal was 0.115 KA relative to UGCAUGU.
The figure for B12 is 0.131 KA relative to UGCAUGU.
The figure for B13 is 0.105 KA relative to UGCAUGU.
For B14, the binding signal is 0.095 KA relative to UGCAUGU.
Under B15 stands 0.146 KA relative to UGCAUGU; under B16, 0.081 KA relative to UGCAUGU; under B17, 0.0636 KA relative to UGCAUGU.
The figure for B18 is 0.0966 KA relative to UGCAUGU; for B19 it is 0.0692 KA relative to UGCAUGU.
The figure for B20 is 0.0965 KA relative to UGCAUGU.
As to B21, the binding signal was 0.111 KA relative to UGCAUGU.
Take B22: the binding signal is 0.0996 KA relative to UGCAUGU.
In the case of B23, the binding signal is 0.115 KA relative to UGCAUGU.
As for B24, the binding signal was 0.129 KA relative to UGCAUGU.
For B25, the binding signal was 0.0588 KA relative to UGCAUGU.
B26: the binding signal was 0.0702 KA relative to UGCAUGU.
Consider B27, for which the binding signal is 0.0693 KA relative to UGCAUGU.
Regarding B28, the binding signal was 0.0797 KA relative to UGCAUGU.
As for B29, the binding signal was 0.0629 KA relative to UGCAUGU.
Under B30 stands 0.0681 KA relative to UGCAUGU; under B31, 0.0854 KA relative to UGCAUGU.

The record behind these values is article PMC9911399, “Two distinct binding modes provide the RNA-binding protein RbFox with extraordinary sequence specificity”.
